For 53 compounds, activation results are on record in PubChem BioAssay AID1645887 (National Center for Advancing Translational Sciences (NCATS), 2021).

Molecules are shown by their SMILES. Where “and” joins values, the source holds several entries; their conditions need not be identical. Equal entries are not always repeated. About 40 (0.2%) of roughly 16,000 compounds were called active. Roughly 1% stayed inconclusive and do not appear here. Calls follow the shape of the dose curve; as a rule, active = well fitted activation curve with a large enough effect; inconclusive = small, poorly fitted or top-dose-only effect, or another doubt; inactive = no such curve, though single readings can be large or run the other way. Some of the results follow.
% is scaled to controls: 0 for no effect and ±100 for the full control effect.

UniProt Q8WZA2, sequence (Q8WZA2 whole entry, looked up): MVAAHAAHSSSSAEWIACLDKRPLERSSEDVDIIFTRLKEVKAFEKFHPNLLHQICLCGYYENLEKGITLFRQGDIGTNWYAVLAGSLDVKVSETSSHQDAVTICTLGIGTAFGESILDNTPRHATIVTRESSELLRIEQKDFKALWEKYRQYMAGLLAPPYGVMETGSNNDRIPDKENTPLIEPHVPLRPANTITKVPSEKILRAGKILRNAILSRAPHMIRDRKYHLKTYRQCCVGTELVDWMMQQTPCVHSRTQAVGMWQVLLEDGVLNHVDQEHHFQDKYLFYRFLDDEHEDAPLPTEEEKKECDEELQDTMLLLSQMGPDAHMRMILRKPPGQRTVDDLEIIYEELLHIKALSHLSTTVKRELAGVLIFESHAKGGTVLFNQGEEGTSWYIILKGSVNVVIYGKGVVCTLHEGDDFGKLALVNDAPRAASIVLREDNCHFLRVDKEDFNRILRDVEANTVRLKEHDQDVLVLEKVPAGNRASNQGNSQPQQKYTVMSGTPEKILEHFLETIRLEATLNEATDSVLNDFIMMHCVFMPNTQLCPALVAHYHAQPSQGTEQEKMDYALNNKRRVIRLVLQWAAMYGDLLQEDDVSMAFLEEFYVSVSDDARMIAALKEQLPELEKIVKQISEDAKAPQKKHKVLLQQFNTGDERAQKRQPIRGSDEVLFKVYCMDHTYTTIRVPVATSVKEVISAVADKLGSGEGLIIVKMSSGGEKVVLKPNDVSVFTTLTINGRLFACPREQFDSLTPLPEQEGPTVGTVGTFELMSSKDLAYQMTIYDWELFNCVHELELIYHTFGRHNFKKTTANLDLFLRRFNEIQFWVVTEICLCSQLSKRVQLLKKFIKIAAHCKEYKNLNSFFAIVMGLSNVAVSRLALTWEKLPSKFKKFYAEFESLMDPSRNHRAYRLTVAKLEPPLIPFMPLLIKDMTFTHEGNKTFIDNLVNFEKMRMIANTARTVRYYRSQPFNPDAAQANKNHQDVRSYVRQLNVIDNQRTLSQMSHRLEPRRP

This test addresses Rap guanine nucleotide exchange factor 4 (Homo sapiens) (UniProt Q8WZA2). As to the kind of experiment: Validation qHTS for agonist of cAMP-regulated guanine nucleotide exchange factor 4 (EPAC2).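 Also: exchange makes BODIPY-GDP fluorescence drop when released from Rap1B; series mostly up to about 150 µM.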 The following applies: EPAC2 Rap1B BODIPY-GDP exchange, fluorescence; activation: stronger effect = higher value. The gist of the method:
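Fluorescent exchange assay: 100 nM EPAC2 with 250 nM RAP1B-BODIPY-GDP and 50 uM GDP; compound added, 5 min at room temperature, then read (ex 480/em 540 nm) every 5 min for 30 min. Normalized to 6.5 mM cAMP agonist control.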
In general terms: Quantitative high-throughput screening tests each substance at several concentrations.
For the compound `NC(=Nc1ccccc1)Nc1ccccc1`, the activation is inactive: 9.38% and inactive: -24.3%.
With `CCCN(CC1CC1)c1nc(C)nc(Nc2c(Cl)cc(Cl)cc2Cl)c1Cl` the figure was inactive: 0.128% and inactive: 4.79%; with `O=C(NCCc1nnc2n1CCN(Cc1ccc(F)c(F)c1)CC2)c1ccoc1`, inactive: -3.36%; with `Nc1nc(Cl)c2ncn(C3OC(CO)C(O)C3O)c2n1` (stereo not drawn), inactive: -6.05%.
With `O=S(=O)(c1ccccc1)N1CCC2(CCN(c3ccncc3)CC2)CC1` the figure was inactive: -10%; with `COc1ccccc1-c1ccnc(-n2ncc(C(=O)NCCCN3CCOCC3)c2C)n1`, inactive: -10.4%.
With `Cc1ccccc1C(=O)NC(C)c1nnc2n1CCN(Cc1ccc(F)cc1)CC2` (stereo not drawn) the figure was inactive: -2.09%; with `CC(=O)Nc1cc(C(=O)N2CCN(C(=O)c3ccco3)CC2)cc2ncn(CCc3ccccn3)c12`, inactive: -21.2%.
Turning to `Cc1nc2ccccc2nc1CN1CCOc2ccc(C(C)(O)COc3ccccc3)cc2C1` (stereo not drawn), the activation was inactive: -0.995%.
With `O=c1c(CCc2ccccc2)nc2cnc(N3CCNCC3)nc2n1CCc1ccccc1` the figure was inactive: -26.6%.
For `COc1ccccc1-c1nccc(NCc2cccs2)n1` the value was inactive: -23.3%.
For `O=c1c(-c2ccccc2)nc2cncnc2n1-c1ccccc1` the value was inactive: -3.26%; for `CS(=O)(=O)N1CCC[C@@]2(CCN(Cc3ccccc3)C2)C1`, inactive: -15.1%.
As for `C1CCN2CC3CC(CN4CCCC[C@@H]34)C2C1` (stereo partly drawn), the activation was inactive: 4.55%.
For `COCc1c(C(=O)NC2CCCC2)cnn1-c1nccc(-c2ccco2)n1` the value was inactive: -11.3%; for `Cc1ccc(C(=O)N(Cc2cc3cccc(C)c3nc2N(C)C)CC2CCCO2)cc1` (stereo not drawn), inactive: -0.224%; for `COc1cc(C)c(CN2CCc3nnc(C(C)NC(=O)c4cc(F)ccc4F)n3CC2)cc1C` (stereo not drawn), inactive: -2.72%.
For `C[C@]12CCC(=O)C=C1CC[C@@H]1[C@@H]2[C@@H](O)C[C@@]2(C)[C@H]1CC[C@]2(O)C(=O)COP(=O)(O)O` the value was inactive: -8.98%; for `Cc1c([N+](=O)[O-])cnc2ccccc12`, inactive: -13.5%.
With `COC(=O)c1cccc(C(=O)N2CCc3c(cnc(C)c3CNC(=O)c3ccsc3)C2)c1` the figure was inactive: -21.7%; with `O=C1NC(c2cccc([N+](=O)[O-])c2)=CCN1c1ccccc1O`, inactive: -3.14% and inactive: 6.56%; with `CC(=O)OCC(=O)[C@@]1(O)CC[C@H]2[C@@H]3CCC4=CC(=O)C=C[C@]4(C)[C@H]3[C@@H](O)C[C@@]21C`, inactive: -5.28%.
`CN(C)c1ncnc2ccc(-c3cccnc3)cc12`: the activation was inactive: -9.13%.
As for `O=C(Nc1cccc(C2=NCCN2)c1)Nc1cccc(C2=NCCN2)c1`, the activation was inactive: 3.56%.
With `CCCOC(=O)c1ccc(N)cc1` the figure was inactive: -0.719%; with `Nc1ncnc2c1ncn2C1CCCC1`, inactive: -15.2%.
With `O=C(c1noc2c1CCCC2)N1CCOc2ccc(CN3CCN(c4ccccn4)CC3)cc2C1` the figure was inactive: -7.56%.
For the compound `CC(=O)c1ccc(-c2cc(F)cc3c2OC(CNC(=O)c2ccc[n+]([O-])c2)C3)s1` (stereo not drawn), the activation was inactive: 4.06%.
For `CCC1CN(CCNC(=O)c2ccnc(Cl)c2)Cc2cc(OC)ccc2O1` (stereo not drawn) the value was inactive: -14.6%; for `C[C@@H]1CN(Cc2ccc3c(c2)CN(C(=O)CN2CCOc4ccccc4C2)CCO3)C[C@H](C)O1`, inactive: -1.21%.
For `O[N+]1=CC=CCC1=S.On1ccccc1=S.[Zn]`, the activation was inactive: 13.1%.
For `CC1(C)CC2C1CCC1(C)OC1CCC2(C)O` (stereo not drawn) the value was inactive: -8.56%; for `COc1cc(=O)n2c(c1C(=O)N(C)Cc1cscn1)CCN(C(=O)c1ccc(C)c(C)c1)CC2`, inactive: -54.1%; for `Cc1[nH]c(C)c(Cl)c(=O)c1Cl`, inactive: -12.1%.
For `CN1CCC2(CC1)CCN(C(=O)c1cc(C(F)(F)F)cc(C(F)(F)F)c1)CC2` the value was inactive: 6.87%; for `CNCC(=O)N[C@@H](CCCN=C(N)N)C(=O)N[C@H](C(=O)N[C@@H](Cc1ccc(O)cc1)C(=O)N[C@H](C(=O)N[C@@H](Cc1cnc[nH]1)C(=O)N1CCC[C@H]1C(=O)N[C@@H](C)C(=O)O)C(C)C)C(C)C`, inactive: 3.59%.
As for `CC(C)CN1CC[C@@]2(CCCN(C(=O)c3ccco3)C2)C1`, the activation was inactive: -13.2%.
As for `CC1=CCc2c(cc3oc(C)cc(=O)c3c2O)OC1`, the activation was inactive: -2.38%.
For `CC1(C)O[C@@H]2C[C@H]3[C@@H]4C[C@H](F)C5=CC(=O)CC[C@]5(C)[C@H]4[C@@H](O)C[C@]3(C)[C@]2(C(=O)CO)O1` the value was inactive: 8.65%.
For `Cc1ccccc1-c1ccc2ncnc(N(C)Cc3ccco3)c2c1` the value was inactive: -2.29%; for `CC(=O)OCC(=O)[C@@]1(O)CCC2C3CCC4=CC(=O)CC[C@@]4(C)[C@]3(F)C(O)C[C@]21C` (stereo partly drawn), inactive: -14.6%; for `C/C(Nc1ccc2oc(=O)ccc2c1)=C1/C(=O)CC2[C@@H]1C2(C)C` (stereo partly drawn), inactive: -2.61%.
With `COc1cc(=O)n2c(c1C(=O)NC(C)c1ccco1)CCN(Cc1cc3ccccc3o1)CC2` (stereo not drawn) the figure was inactive: -3.58%; with `Cn1c(=O)c(-c2ccccc2)nc2cnc(N3CCNCC3)nc21`, inactive: -2.01%.
As to `O=C1N=C(O)CN1/N=C/c1ccc(-c2ccc([N+](=O)[O-])cc2)o1`, the activation is inactive: -6.72% and inactive: -7.68%.
With `CC1=CC(=O)OC1Cc1ccc2ccccc2n1` (stereo not drawn) the figure was inactive: -19.6%; with `Cc1cnc(CNc2cc(-c3ccccc3C)ncn2)cn1`, inactive: -5.22%.
For `Cn1cccc1C(=O)N1CCC2(CCN(Cc3ccc(C#N)cc3)CC2)CC1` the value was inactive: -4.2%; for `COCC(=O)N1CCC2(CC1)CN(c1cccc(-c3ccccc3)c1)C2`, inactive: -17%; for `c1cncc(CNc2ccnc(-c3cccnc3)n2)c1`, inactive: -12.7%.
For `COc1ncc2nc(CCc3ccccc3)c(=O)n(C3CC3)c2n1` the value was inactive: -8.18%; for `CN(C(=O)CCCOc1ccc2[nH]c(=O)ccc2c1)C1CCCCC1`, inactive: -19.8% and inactive: 2.33% and inactive: -57%; for `NNC(=O)c1ccncc1`, inactive: -4.63% and inactive: 1.79% and inactive: -8.32%.
